Source: paper PMC3160840
No constants are given. Whether binding was seen depends on the method and setting. For part of these data: Binding seen in cells or lysates may run through a third protein. Some entries that bind do so weakly or less than the wild type.

Sequences of proteins named here, by UniProt entry; tags and fusion partners are left off. A change or cut given only in a name is not applied to a line headed by its entry. Residues count along the entry.
UniProt Q9UNP9: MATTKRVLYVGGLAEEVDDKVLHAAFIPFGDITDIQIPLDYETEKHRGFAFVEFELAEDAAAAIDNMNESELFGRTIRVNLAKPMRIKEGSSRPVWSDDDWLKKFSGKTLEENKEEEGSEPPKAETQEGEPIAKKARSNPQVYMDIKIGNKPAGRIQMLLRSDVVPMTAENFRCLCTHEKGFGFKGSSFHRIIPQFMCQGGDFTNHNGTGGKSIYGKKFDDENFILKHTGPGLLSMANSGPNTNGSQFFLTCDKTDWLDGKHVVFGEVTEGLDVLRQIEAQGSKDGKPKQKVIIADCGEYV
GST-CypE 137–186: residues 137-186 of Q9UNP9
UniProt P15682: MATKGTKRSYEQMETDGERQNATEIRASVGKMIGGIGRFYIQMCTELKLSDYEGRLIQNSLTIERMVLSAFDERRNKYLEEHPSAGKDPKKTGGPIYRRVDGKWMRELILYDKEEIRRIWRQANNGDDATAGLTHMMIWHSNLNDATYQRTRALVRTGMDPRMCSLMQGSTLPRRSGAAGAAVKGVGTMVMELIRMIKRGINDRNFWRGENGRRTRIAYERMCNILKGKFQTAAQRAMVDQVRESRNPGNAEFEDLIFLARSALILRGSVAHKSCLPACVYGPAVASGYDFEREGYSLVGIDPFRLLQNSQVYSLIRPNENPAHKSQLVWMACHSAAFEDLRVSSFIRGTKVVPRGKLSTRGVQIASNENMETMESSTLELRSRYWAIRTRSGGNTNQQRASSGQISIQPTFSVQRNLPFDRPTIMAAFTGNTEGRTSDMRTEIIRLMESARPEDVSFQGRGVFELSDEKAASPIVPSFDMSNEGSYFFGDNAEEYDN

Key:
GST-CypE 137–186 (human) = GST-CypE 137–186 (human) (UniProt Q9UNP9); assay: pull-down
[1] = biological target: GST-CypE (Cyclophilin E fused to GST) (human) (UniProt Q9UNP9); assay: pull-down; both purified
[2] = biological target: Myc-tagged NP (influenza A virus A/WSN/33 (H1N1)) (UniProt P15682); assay: co-IP

His-NP fusion protein (nucleoprotein of influenza A virus A/WSN/33) (from UniProt P15682 1-498)
binding (GST-CypE 137–186 (human)): binds | binding [1]: binds

Myc-tagged CypE (from UniProt Q9UNP9 1-301)
binding [2]: binds
